Experimental findings from publication PMC6919601, “Identification of Plasmodium dipeptidyl aminopeptidase allosteric inhibitors by high throughput screening” (PLoS ONE, 2019) are described below.

Screen size: about 110,000 compounds; about 230 (0.21%) showed an effect of 50% or more. Some of the results follow.
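Note: 30 min substrate incubation versus DMSO and 10 µM JCP410 controls.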

The target in the experiment is DPAP1 (Plasmodium falciparum, UniProt Q8IIJ9). The experiment is described as follows: primary screen, percent inhibition; read by cleavage of a fluorogenic dipeptide substrate; higher = more effect of the substance. The arrangement: species or system P. falciparum D10 trophozoite lysates; single well.
DPAP1, sequence (Q8IIJ9 whole entry, looked up): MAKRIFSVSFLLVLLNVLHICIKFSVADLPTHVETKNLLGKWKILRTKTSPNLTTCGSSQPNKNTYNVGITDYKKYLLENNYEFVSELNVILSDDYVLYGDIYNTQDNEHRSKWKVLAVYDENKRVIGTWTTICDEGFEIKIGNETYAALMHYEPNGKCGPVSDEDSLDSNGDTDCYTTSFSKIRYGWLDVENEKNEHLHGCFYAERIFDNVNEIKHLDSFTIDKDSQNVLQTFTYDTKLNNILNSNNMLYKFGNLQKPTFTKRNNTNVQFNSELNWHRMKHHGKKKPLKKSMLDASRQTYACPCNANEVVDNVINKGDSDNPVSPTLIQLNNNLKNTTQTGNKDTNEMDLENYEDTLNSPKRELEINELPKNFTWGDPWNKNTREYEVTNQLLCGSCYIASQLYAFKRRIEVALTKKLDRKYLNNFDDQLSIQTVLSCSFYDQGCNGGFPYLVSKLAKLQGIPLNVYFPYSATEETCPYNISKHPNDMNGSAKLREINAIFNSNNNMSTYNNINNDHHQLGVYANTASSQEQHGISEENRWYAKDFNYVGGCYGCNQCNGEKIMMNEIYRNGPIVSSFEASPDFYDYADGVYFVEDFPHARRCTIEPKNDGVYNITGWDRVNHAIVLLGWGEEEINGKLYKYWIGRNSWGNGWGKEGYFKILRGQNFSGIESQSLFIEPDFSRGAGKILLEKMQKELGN
For `COc1ccc(C(=O)N2CCN(c3cc(C)cc(C)c3)CC2)cc1OC`, the “% Inhibition @ 10 uM” value is reported as 5.03%.
The same measure for `CCN(CC)C(=O)C1CCCN(Cc2ccc(Br)s2)C1` (stereo not shown): -2.56%.
In the case of `Cc1ccc(NC(=O)/C=C/c2cccc([N+](=O)[O-])c2)c(Br)c1`, the “% Inhibition @ 10 uM” value is on record as -2.54%.
For the compound `COC(=O)c1ccc(-n2c(C)cc(/C=C3\NC(=O)NC3=O)c2C)cc1`, the “% Inhibition @ 10 uM” value amounted to 4.66%.
Turning to `COc1ccc(CNS(=O)(=O)c2ccc(-c3cc(C(F)(F)F)no3)s2)cc1`, the “% Inhibition @ 10 uM” value was found to be 3.57%.
Take `COc1ccc(NC(=O)CN(c2ccc(Br)cc2)S(C)(=O)=O)cc1`: the “% Inhibition @ 10 uM” value is -1.43%.
The same measure for `Cc1ccc(C(c2c(C)n(C)n(-c3ccccc3)c2=O)c2c(C)n(C)n(-c3ccccc3)c2=O)cc1`: 0.467%; for `COc1ccc(-n2ncc(C(=O)NCc3ccccn3)c2C2CCN(C(=O)OC(C)(C)C)CC2)cc1`: -6.76%; for `Cc1oc(-c2cccs2)nc1CSc1nc2cccnc2[nH]1`: 0.95%.
Turning to `Cc1nc2c(c(C)nn2-c2ccccc2)c(C)c1CCC(=O)N1CC(C)CC(C)C1` (stereo not shown), the “% Inhibition @ 10 uM” value is on record as 2.37%.
Regarding `O=C(NCc1ccncc1)C1CC1c1ccccc1` (stereo not shown), the “% Inhibition @ 10 uM” value was -2.84%.
`CC(C)C[C@H](NC(=O)N1CCN(c2ncc(C(F)(F)F)cc2Cl)CC1)C(=O)NCC#N`: the “% Inhibition @ 10 uM” value is given as -0.207%.
Consider `COc1ccc2c(c1)CCC1C2=CCN2C(=O)CCC12` (stereo not shown), for which the “% Inhibition @ 10 uM” value was found to be 4.28%.
For the compound `NC1=NC(c2cccc(Cl)c2)N(CCc2ccc(F)cc2)C(N)=N1` (stereo not shown), the “% Inhibition @ 10 uM” value is recorded as -4.81%.
Take `CCN(CC)C(=O)C1CCCN(Cc2ccc(C(C)C)cc2)C1` (stereo not shown): the “% Inhibition @ 10 uM” value is listed as -1.07%.
For the compound `COC(=O)C1=C(C)N(CCc2ccc(OC)cc2)C(=O)/C1=C\c1ccc(C(=O)OC)cc1`, the “% Inhibition @ 10 uM” value is listed as -6.87%.
Turning to `CN(C)CCN(Cc1ccccc1)Cc1ccc(C(F)(F)F)cc1`, the “% Inhibition @ 10 uM” value is recorded as -5.2%.
As for `Cc1c(C(=O)N2CCC(C)CC2)oc2ccc(S(=O)(=O)N3CCCCCC3)cc12`, the figure is 0.287%; as for `C=CCSC1=C(C#N)C(c2ccccc2Cl)C(C(=O)Nc2ccccc2C)=C(C)N1` (stereo not shown), 5.29%; as for `CCN(CC)CCNC(=O)C1c2cc(OC)c(OC)cc2C(=O)N(C)C1c1cccs1` (stereo not shown), 9.56%.
For the compound `Cc1c(-c2nc(O)c3ccccc3n2)sc2nc(-c3ccccc3)nc(N)c12`, the “% Inhibition @ 10 uM” value is reported as 3.06%.
The same measure for `CCCC(=O)Nc1ccc(S(=O)(=O)N2CCOCC2)cc1`: -2.78%; for `Cc1ccc2c(c1)-c1onc(C(=O)N3CCN(C4CCCCC4)CC3)c1CO2`: 10.9%.
As for `O=C(Nc1ccc(F)cc1F)C1CCN(C(=O)c2ccc(-c3ccccc3)cc2)CC1`, the figure is 5.73%; as for `Fc1ccccc1/C=C/c1nn2c(-c3cccnc3)nnc2s1`, -1.31%; as for `Cc1cccn2c(=O)c3cc(C(=O)NCC(C)C)n(C)c3nc12`, -1.42%.
For the compound `CCOc1ccc(C2C(=O)N(C3CCCCC3)CC(=O)N2Cc2ccccc2Cl)cc1OC` (stereo not shown), the “% Inhibition @ 10 uM” value is -2.14%.
Turning to `CCOc1ccccc1C(=O)NC1CCC(NC(=O)c2ccccc2OCC)CC1` (stereo not shown), the “% Inhibition @ 10 uM” value came out at 0.528%.
Regarding `O=C(NCc1ccc2c(c1)OCO2)c1ccc(CSCc2ccc(Cl)cc2)o1`, the “% Inhibition @ 10 uM” value was 5.23%.
`O=C(Nc1nc(-c2ccccc2)cs1)c1ccc2c(c1)OCO2`: the “% Inhibition @ 10 uM” value came out at 6.5%.
`COc1ccc2c(c1)c1ncn(CCCN3CCN(C)CC3)c(=O)c1n2C`: the “% Inhibition @ 10 uM” value is reported as -7.27%.
Take `COc1ccccc1NC(=O)c1ccc(COc2ccccc2Br)o1`: the “% Inhibition @ 10 uM” value is -1.04%.
For the compound `CN(Cc1ccc(-c2ccccc2)cc1)CC(O)c1ccccc1` (stereo not shown), the “% Inhibition @ 10 uM” value was 3.48%.
The same measure for `COc1ccc(C2CC(C(F)(F)F)n3nc(C(=O)NCc4cnn(C)c4C)c(Cl)c3N2)cc1` (stereo not shown): -0.988%.
With `CC1(NC(=S)NC2CCS(=O)(=O)C2)CCS(=O)(=O)C1` (stereo not shown), the “% Inhibition @ 10 uM” value is given as 2.56%.
As for `COc1ccccc1C/N=C/C1=C(O)c2sccc2N(Cc2ccccc2)S1(=O)=O`, the figure is 2.33%; as for `CCOC(=O)c1nc(CS(=O)(=O)c2ccccc2)no1`, 3.68%.
On to `Cc1ccc2nc(N3CCOCC3)c3nncn3c2c1`, for which the “% Inhibition @ 10 uM” value is on record as -0.692%.
As for `CCOC(=O)N1CCC(N2CCN(Cc3ccccc3)CC2)CC1`, the “% Inhibition @ 10 uM” value is on record as -1.82%.
In the case of `CCN(CC)c1ccc(C2C3=C(O)CCCC3=NC(C)=C2C(=O)Nc2cc(C)ccn2)cc1` (stereo not shown), the “% Inhibition @ 10 uM” value was -1.07%.
Regarding `COCCN1C(=O)C(O)=C(C(=O)c2ccco2)C1c1cccc(OC)c1` (stereo not shown), the “% Inhibition @ 10 uM” value is reported as -0.891%.
`O=C1C2C3CCC(C3)C2C(=O)N1c1ccccc1Cl` (stereo not shown): the “% Inhibition @ 10 uM” value was -7%.
Consider `Cc1nc2nc(CNC(=O)OC(C)(C)C)nn2c(C)c1CCC(=O)NCCCN1CCCC1=O`, for which the “% Inhibition @ 10 uM” value is listed as -2.17%.
In the case of `CC1=C(C(=O)Nc2cc(C)ccn2)C(c2ccc(C)cc2)C2=C(O)CC(C)(C)CC2=N1` (stereo not shown), the “% Inhibition @ 10 uM” value was determined as 4%.
As for `N=C1/C(=C\c2cccn2-c2ccc3ccccc3c2)C(=O)N=C2SC=NN12`, the “% Inhibition @ 10 uM” value was -0.00718%.
As for `Nc1nc(S)nc2nc(-c3ccccc3)c(-c3ccccc3)nc12`, the figure is -2.8%; as for `COc1ccc(CNC(=O)CCCc2nnc3n(C)c(=O)c4sccc4n23)cc1`, -6.87%; as for `COc1ccc(C(=O)Nc2ccc(S(=O)(=O)Nc3nc(C)cc(C)n3)cc2)c(OC)c1`, -0.239%.
Regarding `Cc1ccc(C(=O)C2=C(O)C(=O)N(CCCn3ccnc3)C2c2cccc(Br)c2)cc1` (stereo not shown), the “% Inhibition @ 10 uM” value is listed as 0.583%.
